Assay results taken from patent US20260116921A1, “PEPTIDE INHIBITORS OF INTERLEUKIN-23 RECEPTOR AND THEIR USE TO TREAT INFLAMMATORY DISEASES” (priority 2018, published 2026).
At least one peptide structure holds a part that was inferred or is arguable (an end, a ring closure or a residue). Numbered stars: 1 amine (or outer) side, 2 acyl side, 3 side chain; on linkers, the order of the positions; unused ones are H or OH. Bridge positions count the residues as written; N and C are the ends. Square brackets hold non-standard residues; d marks the D form. Peptide text beside a SMILES is read from it. X2 = CCCc1cccc2c(C[C@H](N[*:1])C(=O)[*:2])c[nH]c12; Trp(7-Me) = Cc1cccc2c(C[C@H](N)C(=O)O)c[nH]c12; Abu(4-yl) = O=C([C@H](CC[*:3])N[*:1])[*:2]; 2Nal = N[C@@H](Cc1ccc2ccccc2c1)C(=O)O; AEF = NCCOc1ccc(C[C@H](N)C(=O)O)cc1; Cit = NC(=O)NCCC[C@H](N)C(=O)O; Pen = CC(C)(S)[C@H](N)C(=O)O; αMeK = C[C@](N)(CCCCN)C(=O)O

Test system: NK cells
Experiment: NK cell based assay (IL-23/IL-18-induced IFNγ, Quantikine ELISA)
Conditions: human primary NK cells, IL-23 at EC50 to EC75 + IL-18 10 ng/mL, IFNγ after 20 to 24 hours
Protocol: killer (NK) cells, purified from human peripheral blood of healthy donors by negative selection (Miltenyi Biotech, Cat #130-092-657), were cultured in complete media (RPMI 1640 containing […], L-glutamine and penicillin-streptomycin) in the presence of IL-2 (RnD, Cat #202-IL-010/CF) at 25 ng/mL. After 7 days, cells were centrifuged, and resuspended in complete media at IE6 cells/mL. […] After 20 to 24 hours, IFNγ in the supernatant was quantified using Quantikine ELISA (RnD, Cat #DIF50).

| Structure (SMILES) | IC50 [nM] |
| --- | --- |
| CC(=O)N[C@H](CCCNC(=N)N)C(=O)N[C@H]1CCSC[C@@H](C(=O)N[C@@H](Cc2ccc(OCCN)cc2)C(=O)N[C@@H](Cc2ccc3ccccc3c2)C(=O)NC2(C(=O)N[C@@H](CCC(=O)O)C(=O)N[C@@H](CC(N)=O)C(=O)NCCC(N)=O)CCOCC2)NC(=O)[C@H](CCC(N)=O)NC(=O)[C@H](Cc2c[nH]c3c(C)cccc23)NC(=O)[C@H]([C@@H](C)O)NC(=O)[C@H](CCC(N)=O)NC1=O [compound 203] | < 10 |
| CCCc1cccc2c(C[C@@H]3NC(=O)[C@H]([C@@H](C)O)NC(=O)[C@H](CC(N)=O)NC(=O)[C@@H](NC(C)=O)C(C)(C)SSC(C)(C)[C@@H](C(=O)N[C@@H](Cc4ccc(OCCN)cc4)C(=O)N[C@@H](Cc4ccc5ccccc5c4)C(=O)N[C@@](C)(CCCCN)C(=O)N[C@@H](CCCCNC(C)=O)C(=O)N[C@@H](CC(N)=O)C(=O)N[C@H](CC(C)C)C(N)=O)NC(=O)[C@H](CCCCNC(C)=O)NC3=O)c[nH]c12 [compound 285] (Ac-[Pen]NT[X2]K(Ac)[Pen][AEF][2Nal][αMeK]K(Ac)N[dL]-NH2; disulfide 1-6) | < 10 |
| CC(=O)NCCCC[C@H](NC(=O)[C@](C)(CC(C)C)NC(=O)[C@H](Cc1ccc2ccccc2c1)NC(=O)[C@H](Cc1ccc(OCCN)cc1)NC(=O)[C@H]1NC(=O)[C@H](CCC(N)=O)NC(=O)[C@H](Cc2c[nH]c3c(C)cccc23)NC(=O)[C@H]([C@@H](C)O)NC(=O)[C@H](CC(N)=O)NC(=O)[C@@H](NC(C)=O)C(C)(C)SSC1(C)C)C(=O)N1CCC[C@@H]1C(=O)NCCC(N)=O [compound 212] | 101 to 500 |
| CC(=O)NCCCC[C@H](NC(=O)[C@](C)(CC(C)C)NC(=O)[C@H](Cc1ccc2ccccc2c1)NC(=O)[C@H](Cc1ccc(OCCN)cc1)NC(=O)[C@H]1NC(=O)[C@H](CCC(N)=O)NC(=O)[C@H](Cc2c[nH]c3c(C)cccc23)NC(=O)[C@H]([C@@H](C)O)NC(=O)[C@H](CC(N)=O)NC(=O)[C@@H](NC(C)=O)C(C)(C)SSC1(C)C)C(=O)N[C@H](C)C(=O)NCCC(N)=O [compound 209] | 11 to 100 |
| CC(=O)NCCCC[C@H](NC(=O)[C@](C)(CCCCN)NC(=O)[C@H](Cc1ccc2ccccc2c1)NC(=O)[C@H](Cc1ccc(OCCN)cc1)NC(=O)[C@H]1NC(=O)[C@H](CCCNC(N)=O)NC(=O)[C@H](Cc2c[nH]c3c(C)cccc23)NC(=O)[C@H]([C@@H](C)O)NC(=O)[C@H](CC(N)=O)NC(=O)[C@@H](NC(C)=O)C(C)(C)SSC1(C)C)C(=O)N[C@@H](CC(N)=O)C(=O)N[C@H](Cc1ccc(O)cc1)C(N)=O [compound 259] (Ac-[Pen]NT[Trp(7-Me)][Cit][Pen][AEF][2Nal][αMeK]K(Ac)N[dY]-NH2; disulfide 1-6) | < 10 |
| CC(=O)NCCCC[C@@H]1NC(=O)[C@H](Cc2c[nH]c3c(C)cccc23)NC(=O)[C@H]([C@@H](C)O)NC(=O)[C@H](CCC(N)=O)NC(=O)[C@@H](NC(=O)[C@@H](CCCNC(=N)N)NC(C)=O)CCSC[C@@H](C(=O)N[C@@H](Cc2ccc(OCCN)cc2)C(=O)N[C@@H](Cc2ccc3ccccc3c2)C(=O)N[C@@](C)(CCCCN)C(=O)N[C@@H](CCCCNC(C)=O)C(=O)N[C@@H](CC(N)=O)C(=O)N[C@H](CCCCN)C(N)=O)NC1=O [compound 324] (Ac-[dR][Abu(4-yl)]QT[Trp(7-Me)]K(Ac)C[AEF][2Nal][αMeK]K(Ac)N[dK]-NH2; thioether 2-7) | < 10 |
| CC(=O)NCCCC[C@@H]1NC(=O)[C@H](Cc2c[nH]c3c(C)cccc23)NC(=O)[C@H]([C@@H](C)O)NC(=O)[C@H](CC(N)=O)NC(=O)[C@@H](NC(C)=O)C(C)(C)SSC(C)(C)[C@@H](C(=O)N[C@@H](Cc2ccc(OCCN)cc2)C(=O)N[C@@H](Cc2ccc3ccccc3c2)C(=O)N[C@@](C)(CCCCN)C(=O)N[C@@H](CCCCNC(C)=O)C(=O)N[C@@H](CC(N)=O)C(=O)N[C@H](CC(C)C)C(N)=O)NC1=O [compound 245] | < 10 |
| CC(=O)NCCCC[C@@H]1NC(=O)[C@H](Cc2c[nH]c3c(C)cccc23)NC(=O)[C@H]([C@@H](C)O)NC(=O)[C@H](CC(N)=O)NC(=O)[C@@H](NC(C)=O)C(C)(C)SSC(C)(C)[C@@H](C(=O)N[C@@H](Cc2c[nH]cn2)C(=O)N[C@@H](Cc2ccc3ccccc3c2)C(=O)N[C@@](C)(CCCCN)C(=O)N[C@@H](CCCCNC(C)=O)C(=O)N[C@@H](CC(N)=O)C(=O)N[C@H](CC(C)C)C(N)=O)NC1=O [compound 290] (Ac-[Pen]NT[Trp(7-Me)]K(Ac)[Pen]H[2Nal][αMeK]K(Ac)N[dL]-NH2; disulfide 1-6) | 11 to 100 |
| CC(=O)NCCCC[C@H](NC(=O)[C@](C)(CCCCN)NC(=O)[C@H](Cc1ccc2ccccc2c1)NC(=O)[C@H](Cc1ccc(OCCN)cc1)NC(=O)[C@H]1NC(=O)[C@H](CCCCNC(=O)[C@H](C)N)NC(=O)[C@H](Cc2c[nH]c3c(C)cccc23)NC(=O)[C@H]([C@@H](C)O)NC(=O)[C@H](CC(N)=O)NC(=O)[C@@H](NC(C)=O)C(C)(C)SSC1(C)C)C(=O)N[C@@H](CC(N)=O)C(=O)N[C@H](CC(C)C)C(N)=O [compound 314] | < 10 |
| CC(=O)NCCCC[C@H](NC(=O)[C@](C)(CCCCN)NC(=O)[C@H](Cc1ccc2ccccc2c1)NC(=O)[C@H](Cc1ccc(OCCN)cc1)NC(=O)[C@H]1NC(=O)[C@H](CCCNC(N)=O)NC(=O)[C@H](Cc2c[nH]c3c(C)cccc23)NC(=O)[C@H]([C@@H](C)O)NC(=O)[C@H](CC(N)=O)NC(=O)[C@@H](NC(C)=O)C(C)(C)SSC1(C)C)C(=O)N[C@@H](CC(N)=O)C(=O)N[C@H](CO)C(N)=O [compound 261] (Ac-[Pen]NT[Trp(7-Me)][Cit][Pen][AEF][2Nal][αMeK]K(Ac)N[dS]-NH2; disulfide 1-6) | < 10 |
| CC(=O)NCCCC[C@@H]1NC(=O)[C@H](Cc2c[nH]c3c(C)cccc23)NC(=O)[C@H]([C@@H](C)O)NC(=O)[C@H](CC(N)=O)NC(=O)[C@@H](NC(C)=O)C(C)(C)SSC(C)(C)[C@@H](C(=O)N[C@@H](Cc2ccc(OCCN)cc2)C(=O)N[C@@H](Cc2ccc3ccccc3c2)C(=O)N[C@@](C)(CCCCN)C(=O)N[C@@H](CCCCNC(C)=O)C(=O)N[C@@H](CC(N)=O)C(=O)N[C@@H](C(N)=O)C(C)C)NC1=O [compound 251] | < 10 |
| CC(=O)NCCCC[C@H](NC(=O)[C@](C)(CC(C)C)NC(=O)[C@H](Cc1ccc2ccccc2c1)NC(=O)[C@H](Cc1ccc(OCCN)cc1)NC(=O)[C@H]1NC(=O)[C@H](CCC(N)=O)NC(=O)[C@H](Cc2c[nH]c3c(C)cccc23)NC(=O)[C@H]([C@@H](C)O)NC(=O)[C@H](CC(N)=O)NC(=O)[C@@H](NC(C)=O)C(C)(C)SSC1(C)C)C(=O)N[C@H](CC(C)C)C(=O)NCCC(N)=O [compound 210] | 101 to 500 |
| CC(=O)NCCCC[C@H](NC(=O)[C@](C)(CC(C)C)NC(=O)[C@H](Cc1ccc2ccccc2c1)NC(=O)[C@H](Cc1ccc(OCCN)cc1)NC(=O)[C@H]1NC(=O)[C@H](CCC(N)=O)NC(=O)[C@H](Cc2c[nH]c3c(C)cccc23)NC(=O)[C@H]([C@@H](C)O)NC(=O)[C@H](CC(N)=O)NC(=O)[C@@H](NC(C)=O)C(C)(C)SSC1(C)C)C(=O)N[C@H](Cc1ccccc1)C(=O)NCCC(N)=O [compound 213] | 11 to 100 |
| CC(=O)NCCCC[C@@H]1NC(=O)[C@H](Cc2c[nH]c3c(C)cccc23)NC(=O)[C@H]([C@@H](C)O)NC(=O)[C@H](CC(N)=O)NC(=O)[C@@H](NC(C)=O)C(C)(C)SSC(C)(C)[C@@H](C(=O)N[C@@H](Cc2ccc3ccccc3c2)C(=O)N[C@@H](Cc2ccc3ccccc3c2)C(=O)N[C@@](C)(CCCCN)C(=O)N[C@@H](CCCCNC(C)=O)C(=O)N[C@@H](CC(N)=O)C(=O)N[C@H](CC(C)C)C(N)=O)NC1=O [compound 289] (Ac-[Pen]NT[Trp(7-Me)]K(Ac)[Pen][2Nal][2Nal][αMeK]K(Ac)N[dL]-NH2; disulfide 1-6) | < 10 |
